We go through 90 compounds from article PMC4336329 (PLoS ONE, 2015).

The campaign covered roughly 310,000 compounds. About 14,000 (4.5%) showed an effect of 50% or more. The effect is printed as a negative number. Some of the results follow.
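Further: peak tail current of the secondary pulse compared with the same well before compound.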

This experiment deals with human ether-à-go-go-related gene (hERG) potassium channel (human, UniProt Q12809). Nature of the experiment: primary screen, population patch clamp on CHO cells stably expressing hERG.
Chain of human ether-à-go-go-related gene (hERG) potassium channel (Q12809 whole entry, looked up): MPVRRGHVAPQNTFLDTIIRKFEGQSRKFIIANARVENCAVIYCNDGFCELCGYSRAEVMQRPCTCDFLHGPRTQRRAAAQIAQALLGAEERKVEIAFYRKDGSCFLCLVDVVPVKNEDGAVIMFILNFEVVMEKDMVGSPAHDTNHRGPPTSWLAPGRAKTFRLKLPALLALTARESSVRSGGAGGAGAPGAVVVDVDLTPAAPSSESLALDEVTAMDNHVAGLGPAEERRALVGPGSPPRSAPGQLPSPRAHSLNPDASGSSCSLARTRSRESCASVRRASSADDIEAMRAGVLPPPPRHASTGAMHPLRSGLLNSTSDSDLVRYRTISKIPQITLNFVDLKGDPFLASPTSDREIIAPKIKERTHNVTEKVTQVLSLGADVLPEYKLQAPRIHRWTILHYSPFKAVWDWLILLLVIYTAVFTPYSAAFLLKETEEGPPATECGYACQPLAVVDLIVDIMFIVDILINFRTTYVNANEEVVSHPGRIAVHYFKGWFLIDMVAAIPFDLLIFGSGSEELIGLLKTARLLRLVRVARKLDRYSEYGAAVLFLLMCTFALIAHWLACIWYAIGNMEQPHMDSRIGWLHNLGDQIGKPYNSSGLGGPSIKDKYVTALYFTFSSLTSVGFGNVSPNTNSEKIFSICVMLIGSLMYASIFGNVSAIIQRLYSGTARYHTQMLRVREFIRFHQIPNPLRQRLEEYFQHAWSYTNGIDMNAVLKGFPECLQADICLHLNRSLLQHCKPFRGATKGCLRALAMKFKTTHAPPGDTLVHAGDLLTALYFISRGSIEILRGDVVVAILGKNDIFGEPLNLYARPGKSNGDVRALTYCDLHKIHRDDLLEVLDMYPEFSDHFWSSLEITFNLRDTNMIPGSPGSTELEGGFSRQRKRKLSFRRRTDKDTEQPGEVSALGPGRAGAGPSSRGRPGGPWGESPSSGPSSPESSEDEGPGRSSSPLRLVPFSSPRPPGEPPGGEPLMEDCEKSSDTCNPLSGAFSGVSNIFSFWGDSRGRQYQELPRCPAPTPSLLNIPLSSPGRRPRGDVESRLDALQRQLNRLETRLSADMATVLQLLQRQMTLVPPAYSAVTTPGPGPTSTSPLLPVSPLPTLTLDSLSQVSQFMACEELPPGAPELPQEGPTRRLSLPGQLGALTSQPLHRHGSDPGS
On to `Cc1cc(C)cc(NC(=O)c2sc3nc(C)cc(C)c3c2N)c1`, for which the “hERG current change (%, negative = inhibition) at 10uM” value amounted to 21.6%.
`c1ccc2nc3c(nc2c1)CCCC3`: the “hERG current change (%, negative = inhibition) at 10uM” value amounted to 17.2%.
Under `O=C(NCCCN=C1NS(=O)(=O)c2ccccc21)c1ccc(F)cc1` stands 11.1%; under `O=C(OCc1nc2scc(-c3ccccc3)c2c(=O)[nH]1)c1cc(Cl)ccc1[N+](=O)[O-]`, 5.84%.
For the compound `Cc1cccc(NC(=O)NCCN2CCCCC2)c1`, the “hERG current change (%, negative = inhibition) at 10uM” value was -25%.
With `O=C(NC(=S)Nc1ccc(N2CCOCC2)cc1)c1cccc(Cl)c1Cl`, the “hERG current change (%, negative = inhibition) at 10uM” value is 7.84%.
With `CC1CN(C(=O)N2c3ccccc3Sc3ccccc32)C(C)CC1=O` (stereo not drawn), the “hERG current change (%, negative = inhibition) at 10uM” value is -5.88%.
As to `COc1ccc(/C=N/NC(=O)c2cc(-c3cccn3C)n[nH]2)cc1OC`, the “hERG current change (%, negative = inhibition) at 10uM” value is given as -27.5%.
In the case of `CCOC(=O)C1=C(C)OC(N)=C(C#N)C1c1cc(SCC)oc1C` (stereo not drawn), the “hERG current change (%, negative = inhibition) at 10uM” value is 3.49%.
As for `CC1(C)CNc2cc(N)ccc2S1`, the “hERG current change (%, negative = inhibition) at 10uM” value was determined as 11.3%.
In the case of `Cc1ccc(NC(=S)N2CCN(CCN3C(=O)c4cccc5cccc(c45)C3=O)CC2)cc1`, the “hERG current change (%, negative = inhibition) at 10uM” value is on record as -1.29%.
Take `Cc1c(NC(=O)CN2C(=O)NC(C)(c3ccc(Cl)cc3)C2=O)c(=O)n(-c2ccccc2)n1C` (stereo not drawn): the “hERG current change (%, negative = inhibition) at 10uM” value is -7.84%.
On to `COCCn1cnc2c1c(=O)[nH]c(=O)n2Cc1ccccc1`, for which the “hERG current change (%, negative = inhibition) at 10uM” value was 25.6%.
Then `CC1CCCCN1C(=O)CSc1nnc(-c2c[nH]c3ccccc23)o1` (stereo not drawn), with -5.43%; and `O=C1N(C2CCCC2)C[C@@H]2C[C@@H](c3cn[nH]c3-c3ccc(Cl)cc3)N3CCC[C@@]123`, with -37.8%.
Regarding `COCC(=O)OCn1nnc2ccccc2c1=O`, the “hERG current change (%, negative = inhibition) at 10uM” value is recorded as -3.35%.
With `C=CCn1c(NCCO)nc2sc3c(c2c1=O)CCC3`, the “hERG current change (%, negative = inhibition) at 10uM” value was 4.35%.
As for `O=C(CSc1ccc2c(c1)OCCO2)Nc1cccnc1Cl`, the “hERG current change (%, negative = inhibition) at 10uM” value is on record as 9.12%.
For the compound `CCC(C(=O)OCC(=O)Nc1cc(OC)ccc1OC)c1ccccc1` (stereo not drawn), the “hERG current change (%, negative = inhibition) at 10uM” value is listed as 5.95%.
`CCc1nccn1S(=O)(=O)c1ccc(Br)cc1Br`: the “hERG current change (%, negative = inhibition) at 10uM” value was -23.4%.
As for `COc1ccc(N(CC(=O)N/N=C(\C)c2ccc(C)cc2)S(=O)(=O)c2ccccc2)cc1`, the “hERG current change (%, negative = inhibition) at 10uM” value came out at 23.7%.
Regarding `CC1(S(=O)(=O)[O-])CC(=O)c2ccccc2C1=O.O.[Na+]` (stereo not drawn), the “hERG current change (%, negative = inhibition) at 10uM” value was -26.7%.
Take `O=C(Cn1ncc2c3ccccc3n(Cc3cccc(Cl)c3)c2c1=O)NCC1CCCO1` (stereo not drawn): the “hERG current change (%, negative = inhibition) at 10uM” value worked out at 0.334%.
`Br.OCCn1c(-c2ccc3c(c2)OCO3)csc1=Nc1ccccc1`: the “hERG current change (%, negative = inhibition) at 10uM” value is recorded as -20.2%.
Under `CSc1ncc(/C=C2/C(=O)NC(=O)N(C3CCCCC3)C2=O)cn1` stands -4.51%; under `O=C(NCc1ccccn1)C1Nc2ccc(OC(F)(F)F)cc2C2C=CCC12` (stereo not drawn), -1.6%; under `C=CCn1c(SCc2ccc(OC)cc2)nnc1-c1cccnc1`, -26.9%.
Then `O=C(CN1CCN(S(=O)(=O)c2ccc(Cl)cc2)CC1)c1ccc(O)c(O)c1`, with -59.5%.
As to `C/C=C/c1ccc(OCC(=O)Nc2cc(OC)c(OC)c(OC)c2)c(OC)c1`, the “hERG current change (%, negative = inhibition) at 10uM” value is -3.16%.
Then `COc1ccc(C(=O)N(C)Cc2ccc(C)o2)cc1OC1CCN(C(C)=O)CC1`, with 3.84%; and `CC(C)Oc1ccc(NC(=O)CCC(=O)O)cc1`, with -0.196%.
As to `CCn1cc(C(=O)NCCC(=O)NCCCO)c(=O)c2cc3c(cc21)OCO3`, the “hERG current change (%, negative = inhibition) at 10uM” value is given as 20.1%.
Under `CN(C)CCC(=O)c1ccc(Cl)cc1.Cl` stands 2.48%; under `CS(=O)(=O)c1ncc(Cl)c(C(=O)Nc2ccc(OC(F)F)cc2)n1`, 9.65%.
Then `COc1ccc(C(=O)NNC(=O)c2cc(C)nc3ccccc23)cc1`, with -0.237%; and `CCC(C)NC(=O)C1CN(S(=O)(=O)c2ccccc2)CCN1S(=O)(=O)c1ccccc1` (stereo not drawn), with -18.3%; and `C=CCOC(=O)C1=C(C)NC(C)=C(C(=O)OCC=C)C1c1ccc(C)o1`, with -27.4%.
Under `CCCCC(=O)Nc1cccn2ncnc12` stands 10.8%; under `Cc1ccc(F)c(NC=C2C(=O)OC(C)(C)OC2=O)c1`, -1.52%; under `Cc1cc(C)c(C(=O)C(C)OC(=O)c2ccccn2)cc1C` (stereo not drawn), 16.1%.
`CN(CC(=O)Nc1cccc(F)c1)C(=O)c1cc(-c2cccs2)nn1-c1ccccc1`: the “hERG current change (%, negative = inhibition) at 10uM” value is on record as -24.3%.
Consider `CCOc1ccccc1C(=O)NC1CC2CCCC(C1)N2C1CC1` (stereo not drawn), for which the “hERG current change (%, negative = inhibition) at 10uM” value is recorded as -19%.
With `CCCCOC(=O)Nc1ccc(S(=O)(=O)Nc2cc(C)nc(C)n2)cc1`, the “hERG current change (%, negative = inhibition) at 10uM” value is 17.8%.
`COc1ccc(-n2c(-c3ccc(Cl)cc3)c[nH]c2=S)cc1`: the “hERG current change (%, negative = inhibition) at 10uM” value came out at 27.9%.
For the compound `CC(C)OC(=O)/C(=C\c1ccccc1)NC(=O)c1ccccc1`, the “hERG current change (%, negative = inhibition) at 10uM” value is listed as 3.64%.
Turning to `CC(C)(C)c1cc(C=C(C#N)C#N)cc(C(C)(C)C)c1O`, the “hERG current change (%, negative = inhibition) at 10uM” value is listed as 19.1%.
Then `COc1cc(CN2CC(=O)N(c3ccc(C)cc3)C2=S)cc(OC)c1OC`, with 7.46%.
With `O=C(O)/C(=C\c1ccccc1)c1ccccc1`, the “hERG current change (%, negative = inhibition) at 10uM” value is -0.424%.
Turning to `CC(OC(=O)Cn1cnc2ccccc2c1=O)C(=O)N(C)c1ccccc1` (stereo not drawn), the “hERG current change (%, negative = inhibition) at 10uM” value was -3.19%.
With `NS(=O)(=O)c1ccc(CNC(=O)Cn2nc(C(F)F)cc2C(F)F)cc1`, the “hERG current change (%, negative = inhibition) at 10uM” value was 9.18%.
For `C=CCn1c(SCC(=O)Nc2ccc3c(c2)CCC3)nc2ccccc2c1=O`, the “hERG current change (%, negative = inhibition) at 10uM” value is recorded as -21.6%.
For `CCOC(=O)c1ccc(NC(=O)CC2SCCNC2=O)cc1` (stereo not drawn), the “hERG current change (%, negative = inhibition) at 10uM” value came out at 11.7%.
On to `COc1ccc(C(=O)NCC2(c3ccccc3)CCCC2)c(OC)c1`, for which the “hERG current change (%, negative = inhibition) at 10uM” value was -21.5%.
Then `CC1=CC=CC2=NC(=O)CC(C)(C(=O)N(CC(=O)NC3CCCC3)c3ccc(F)cc3)N12` (stereo not drawn), with 11.1%.
`Cc1nnc(C)c2c(C)n(-c3ccc(Cl)c(N)c3)c(C)c12`: the “hERG current change (%, negative = inhibition) at 10uM” value is reported as -45%.
Turning to `COC(=O)c1c(NC(=O)c2ccc(S(=O)(=O)N3CCOCC3)cc2)sc2c1CCN(C)C2.Cl`, the “hERG current change (%, negative = inhibition) at 10uM” value was -35%.
For `COc1ccc(C(=O)NCC2(c3ccccc3)CCOCC2)cc1[N+](=O)[O-]`, the “hERG current change (%, negative = inhibition) at 10uM” value is given as -18.4%.
For `O=C(Nc1ccccc1C(=O)NCC1CCCO1)c1ccc(Cl)cc1Cl` (stereo not drawn), the “hERG current change (%, negative = inhibition) at 10uM” value is given as -24.8%.
Take `CCOc1ccc2nc(SCC(=O)NC3CCCc4ccccc43)sc2c1` (stereo not drawn): the “hERG current change (%, negative = inhibition) at 10uM” value is 14.2%.
For the compound `C=CCc1ccc(OCCCCN2CC(C)CC(C)C2)c(OC)c1.O=C(O)C(=O)O` (stereo not drawn), the “hERG current change (%, negative = inhibition) at 10uM” value is listed as -67%.
Take `CCCCN1C(N)=NC[C@@H]1Cc1ccccc1`: the “hERG current change (%, negative = inhibition) at 10uM” value amounted to 0.376%.
For the compound `COc1ccc(C(=O)N2CCCC2)cc1`, the “hERG current change (%, negative = inhibition) at 10uM” value is -2.88%.
Consider `O=C1c2cccc3c(O)ccc(c23)C(=O)N1c1ccc(Cl)cc1`, for which the “hERG current change (%, negative = inhibition) at 10uM” value is -7.31%.
Under `O=C(N[C@@H](Cc1c[nH]c2ccccc12)C(=O)NC1CC1)c1ccccc1Cl` stands 7.79%.
Under `CSc1cccc(-c2nnc(NC(=O)c3cccc(N4C(=O)CCC4=O)c3)o2)c1` stands 5.94%; under `CCOC(=O)c1c(NC(NC(=O)CF)C(Cl)(Cl)Cl)sc2c1CCCC2` (stereo not drawn), -6.42%; under `COc1cc(CNc2ccc(N3CCOCC3)c(C(=O)O)c2)ccc1OCC(N)=O`, -6.95%.
For the compound `CC[C@@]1(O)C(=O)OCc2c1cc1n(c2=O)Cc2cc3c(N)cccc3nc2-1`, the “hERG current change (%, negative = inhibition) at 10uM” value was 8.96%.
Turning to `Cc1sc2nc(C(C)C)nc(SCC(=O)NC3CC3)c2c1C`, the “hERG current change (%, negative = inhibition) at 10uM” value stood at 18.4%.
For the compound `CC(C)Nc1nc(NC(C)C)nc(N(C)N)n1`, the “hERG current change (%, negative = inhibition) at 10uM” value is listed as -6.73%.
Then `CCc1nnc(NC(=O)CSc2nncc(=O)n2N)s1`, with 22.4%; and `COc1ccc(NC(=O)CCCc2ccc(OC)c(C)c2)cc1`, with 3.93%.
Take `O=C1COc2ccc(C(=O)COC(=O)c3ccc(Cl)cc3[N+](=O)[O-])cc2N1`: the “hERG current change (%, negative = inhibition) at 10uM” value is -34%.
With `COc1ccc(CN2CCN(C(=O)c3cccs3)CC2)cc1Br`, the “hERG current change (%, negative = inhibition) at 10uM” value is -24.4%.
For `COc1ccccc1NC(=O)CSc1nnc(CCC(=O)Nc2ccccc2F)n1C`, the “hERG current change (%, negative = inhibition) at 10uM” value stood at 9.86%.
Turning to `Cl.O=C(CNCCO)NC12CC3CC(CC(C3)C1)C2`, the “hERG current change (%, negative = inhibition) at 10uM” value turned out to be 13.2%.
For `CCC(C)(C)NC(=O)CN(C(=O)c1snc(C(N)=O)c1N)c1ccc2nc(C)sc2c1`, the “hERG current change (%, negative = inhibition) at 10uM” value is -7.15%.
As for `C/C(Cl)=C\COc1cc(C)nc2c(Br)cccc12`, the “hERG current change (%, negative = inhibition) at 10uM” value turned out to be 10.7%.
For `CC1CCCCN1C(=O)CSc1nnc(CSc2ncccn2)n1C` (stereo not drawn), the “hERG current change (%, negative = inhibition) at 10uM” value was determined as 3.86%.
Take `O=C(NCC(F)(F)F)Nc1ccccn1`: the “hERG current change (%, negative = inhibition) at 10uM” value is -1.8%.
Turning to `CN(C)NC(=S)NC1CC2CCC1C2` (stereo not drawn), the “hERG current change (%, negative = inhibition) at 10uM” value came to 8.87%.
As to `CCCOc1cccc(C(=O)N/N=C/c2ccoc2)c1`, the “hERG current change (%, negative = inhibition) at 10uM” value was 4.65%.
With `COc1ccc(OC)c(/C=N/NC(=O)c2[nH]ncc2Br)c1`, the “hERG current change (%, negative = inhibition) at 10uM” value stood at 9.01%.
As for `Cc1ccc(S(=O)(=O)NCC(=O)OCC(=O)N2CCN(C(=O)c3ccco3)CC2)cc1C`, the “hERG current change (%, negative = inhibition) at 10uM” value is reported as -10.1%.
Under `CC(OC(=O)CCc1c[nH]c2ccccc12)C(=O)c1ccccc1` (stereo not drawn) stands -17.8%; under `CC(C(=O)OCC(=O)Nc1cccc(S(=O)(=O)N(C)C)c1)N1C(=O)c2ccccc2C1=O` (stereo not drawn), -82.8%.
In the case of `COCC(=O)N(Cc1nc2sc(C)c(C)c2c(=O)[nH]1)C1CCCCC1`, the “hERG current change (%, negative = inhibition) at 10uM” value is listed as -6.56%.
For `COc1ccc(CCn2c(NCc3ccco3)nc3c2c(=O)[nH]c(=O)n3C)cc1`, the “hERG current change (%, negative = inhibition) at 10uM” value stood at 5.73%.
On to `O=C(O)c1ccccc1C(=O)Nc1cc(-c2ccccc2)[nH]n1`, for which the “hERG current change (%, negative = inhibition) at 10uM” value is 18%.
`Cc1ccc(-c2nc(CSCC(=O)Nc3cc(C)on3)c(C)o2)cc1`: the “hERG current change (%, negative = inhibition) at 10uM” value is given as 5.39%.
